The target in one assay is T1, SPDEF-GST (UniProt O95238).
T1 sequence: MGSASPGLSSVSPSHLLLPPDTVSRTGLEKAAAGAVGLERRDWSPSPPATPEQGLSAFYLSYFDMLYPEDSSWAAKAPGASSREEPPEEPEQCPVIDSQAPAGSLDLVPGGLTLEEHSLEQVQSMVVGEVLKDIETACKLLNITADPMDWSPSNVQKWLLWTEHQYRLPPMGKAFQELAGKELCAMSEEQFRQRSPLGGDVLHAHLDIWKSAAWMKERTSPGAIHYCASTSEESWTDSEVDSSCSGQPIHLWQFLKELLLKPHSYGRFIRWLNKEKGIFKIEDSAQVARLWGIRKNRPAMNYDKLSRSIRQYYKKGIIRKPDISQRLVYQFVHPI
In words: pull-down; GST fusion protein from BL21 lysate on glutathione-Sepharose beads, washed, incubated with 5 μl of in vitro translated protein in protein binding buffer for 16 hours at 4°C; Western blot; only the target purified. On the technique in general: A western blot detects proteins with antibodies after separation by electrophoresis.

The chains behind the UniProt entries cited, without tags or fusion partners. Residues count along the entry.
UniProt P21127, residues 357-795: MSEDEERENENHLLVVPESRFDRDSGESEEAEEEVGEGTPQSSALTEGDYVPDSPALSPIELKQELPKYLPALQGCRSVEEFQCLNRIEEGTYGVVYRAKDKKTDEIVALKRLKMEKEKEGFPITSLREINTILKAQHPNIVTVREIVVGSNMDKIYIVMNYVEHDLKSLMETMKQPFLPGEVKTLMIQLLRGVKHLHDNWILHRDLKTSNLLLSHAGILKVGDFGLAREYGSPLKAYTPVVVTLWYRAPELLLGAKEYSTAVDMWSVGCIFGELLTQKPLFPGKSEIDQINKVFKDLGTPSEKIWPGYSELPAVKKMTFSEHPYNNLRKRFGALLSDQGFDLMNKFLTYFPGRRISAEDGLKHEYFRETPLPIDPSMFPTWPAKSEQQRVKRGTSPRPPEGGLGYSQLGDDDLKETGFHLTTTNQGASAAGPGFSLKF

Assay [1] has as its target T2, GADD45γ-Flag (UniProt O95257).
T2 sequence: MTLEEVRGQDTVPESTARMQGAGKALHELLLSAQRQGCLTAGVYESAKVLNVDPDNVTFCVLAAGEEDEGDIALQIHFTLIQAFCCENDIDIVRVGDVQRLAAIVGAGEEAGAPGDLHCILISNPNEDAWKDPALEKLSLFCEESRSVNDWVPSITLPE
Nature of the assay: co-IP; in vitro translated proteins mixed in the presence of anti-Flag agarose or anti-myc agarose beads; Western blot.

In assay [2] the target is T2, GADD45γ-Flag. Nature of the assay: co-IP; DU145 cells transfected; protein extracts immunoprecipitated with anti-FLAG mAb; Western blot.
Another assay addresses T3, SPDEF-Flag (UniProt O95238).
T3 sequence: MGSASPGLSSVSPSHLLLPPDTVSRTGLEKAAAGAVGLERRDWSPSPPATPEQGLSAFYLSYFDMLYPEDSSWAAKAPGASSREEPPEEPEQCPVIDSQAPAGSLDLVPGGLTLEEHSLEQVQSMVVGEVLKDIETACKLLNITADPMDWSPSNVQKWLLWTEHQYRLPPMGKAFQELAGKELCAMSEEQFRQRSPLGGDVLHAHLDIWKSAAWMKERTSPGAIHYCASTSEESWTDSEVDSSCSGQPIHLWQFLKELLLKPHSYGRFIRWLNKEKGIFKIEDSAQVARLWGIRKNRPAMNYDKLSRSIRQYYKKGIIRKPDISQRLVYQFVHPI
Described as above.

The next assay addresses T4, GADD45α-Flag (UniProt P24522).
T4 sequence: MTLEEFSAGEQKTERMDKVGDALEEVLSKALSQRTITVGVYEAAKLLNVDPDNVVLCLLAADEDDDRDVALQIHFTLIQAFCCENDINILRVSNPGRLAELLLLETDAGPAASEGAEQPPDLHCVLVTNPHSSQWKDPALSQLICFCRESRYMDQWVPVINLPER
In words: co-IP; HEK 293T cells transfected; protein extracts immunoprecipitated with anti-FLAG mAb; Western blot with anti-HA.

In assay [3] the target is T2, GADD45γ-Flag. Described as above.
A further assay addresses T5, GADD45β-Flag (UniProt O75293).
T5 sequence: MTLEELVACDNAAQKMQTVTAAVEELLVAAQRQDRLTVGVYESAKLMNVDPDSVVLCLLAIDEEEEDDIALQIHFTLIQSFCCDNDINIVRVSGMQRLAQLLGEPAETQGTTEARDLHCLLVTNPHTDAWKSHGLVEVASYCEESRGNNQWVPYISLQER
The description is as above.

A further assay concerns the target T6, SPDEF-myc (UniProt O95238).
T6 sequence: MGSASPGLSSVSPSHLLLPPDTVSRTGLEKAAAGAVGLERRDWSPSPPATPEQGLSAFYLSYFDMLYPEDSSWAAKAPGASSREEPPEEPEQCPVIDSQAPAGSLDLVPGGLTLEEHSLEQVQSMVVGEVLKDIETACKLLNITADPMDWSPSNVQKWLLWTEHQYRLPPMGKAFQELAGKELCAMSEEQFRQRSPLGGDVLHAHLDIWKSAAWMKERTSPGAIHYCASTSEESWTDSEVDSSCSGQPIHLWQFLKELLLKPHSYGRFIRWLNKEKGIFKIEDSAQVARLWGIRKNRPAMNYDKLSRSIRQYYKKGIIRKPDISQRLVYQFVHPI
In words: co-IP; in vitro translated proteins mixed in the presence of anti-Flag agarose or anti-myc agarose beads; Western blot.

In paper PMC4924684 one finds binding data, which are given here for two molecules.

Results are given in words; binding and its absence hold for the method and conditions named. Binding seen in cells or lysates may run through a third protein. Some results given as binding are weak or reduced against the parent protein; the word gives no strength. Tags and fused reporters may be left off the sequences shown.

As to “CDK11p58-HA (from UniProt P21127-12 1-439)”, the binding result with SPDEF-GST, with GADD45γ-Flag [1], with GADD45γ-Flag [2], in the assay with SPDEF-Flag, with GADD45α-Flag and in the assay with GADD45γ-Flag [3] was “binds” throughout. For the same molecule, the binding entry with GADD45β-Flag is “binds”.

B1: GADD45α-Flag (protein, UniProt P24522 1-165)
chain: MTLEEFSAGEQKTERMDKVGDALEEVLSKALSQRTITVGVYEAAKLLNVDPDNVVLCLLAADEDDDRDVALQIHFTLIQAFCCENDINILRVSNPGRLAELLLLETDAGPAASEGAEQPPDLHCVLVTNPHSSQWKDPALSQLICFCRESRYMDQWVPVINLPER
As for B1, the binding result with SPDEF-myc is given as “no binding”.
